The term % Inhibition denotes the change of the read-out against control, counted positive when it falls.

About 540 (0.36%) of roughly 150,000 compounds showed an effect of 50% or more. This is one part of the list.

For the experiment, the system named is Plasmodium falciparum. Briefly: Primary screen in NF54 nanoGlo assay, in single point, at 2uM, 72h; a lower Z score goes with more inhibition. In kind it is functional, Erythrocyte. The settings on record: timepoint 72 hour.
In the case of `CC(=O)N1CCCN(c2nnnn2CC(C)(C)C2CCCC2)CC1`, the “% Inhibition” value came to 5% and the Z score was -0.59.

For `O=C(c1cc(Cn2cc(Br)cn2)on1)N1CCNCC1`, the “% Inhibition” value is recorded as 5% and the Z score is given as -0.64.

Take `COC(=O)NCC(=O)Oc1ccc(OCC2CC2)cc1`: the “% Inhibition” value is -9% and the Z score turned out to be 0.86.

For the compound `Cc1ccc(C(C)NC(=O)N(CC(O)c2ccc(F)cc2)C2CC2)o1` (stereo unspecified), the “% Inhibition” value is recorded as -13% and the Z score turned out to be 1.78.

With `CC1CCCC1NC(=O)CCCNC(=O)OC(C)(C)C` (stereo unspecified), the “% Inhibition” value is reported as -9% and the Z score amounted to 1.81.

Regarding `COc1ccccc1-c1cc(O)n(-c2nc(C)cc(C)n2)n1`, the “% Inhibition” value amounted to 31% and the Z score is -3.53.

For `COc1ccc(C2CC(=O)CC(c3ccc(OC)cc3)C2(C#N)C(N)=O)cc1` (stereo unspecified), the “% Inhibition” value was -8% and the Z score was determined as 1.22.

Take `C[C@@]1(c2ccc(Cl)s2)NC(=O)N(Cc2ccccc2)C1=O`: the “% Inhibition” value is reported as -5% and the Z score came out at 0.85.

Regarding `CCCn1ncc(C(=O)N2CCc3[nH]cnc3[C@H]2c2ccccn2)c1C`, the “% Inhibition” value turned out to be 1% and the Z score is -0.15.

Take `O=C1C(NC2CCCn3ncnc32)CCN1c1ccc(F)c(Cl)c1` (stereo unspecified): the “% Inhibition” value is -4% and the Z score was 0.49.

Turning to `CN1CCC(N(Cc2ccncc2)C(=O)Nc2cccc(C#N)c2)CC1`, the “% Inhibition” value is listed as -5% and the Z score is on record as 0.66.

As to `CNc1nc(N2CCC(C(=O)O)(n3cccn3)CC2)nc2c1CCC2`, the “% Inhibition” value came to 14% and the Z score is recorded as -1.82.

For the compound `CCS(=O)(=O)N1CCC[C@H]1C(=O)OC`, the “% Inhibition” value was found to be 7% and the Z score is -1.35.

Consider `Cc1ccc(C)c(NS(=O)(=O)c2cc3[nH]c4c(c3cc2C)C(=O)CCC4)c1`, for which the “% Inhibition” value is listed as -12% and the Z score came to 2.3.

As to `CC(C)N(C[C@H]1CCCNC1)C(=O)OC(C)(C)C`, the “% Inhibition” value is recorded as -8% and the Z score stood at 0.84.

For `O=C(NCc1cnccn1)c1ccnc(N2CCN[C@H](c3ccccc3)C2)c1`, the “% Inhibition” value is 0% and the Z score is -0.08.

In the case of `COCCNC(=O)CN(C)c1ncccc1F`, the “% Inhibition” value is -9% and the Z score is 0.8.

`Cc1ccc(C)c(C2CCN(C(=O)Nc3cnn(CCF)c3)CC2)c1`: the “% Inhibition” value is 6% and the Z score is -0.93.

For the compound `Cc1nn(CCO)c(C)c1-n1ccnc1-c1ccncc1`, the “% Inhibition” value was -11% and the Z score is reported as 1.76.

Regarding `CC(C)c1ccc(CCCNS(N)(=O)=O)cc1`, the “% Inhibition” value is 7% and the Z score is listed as -0.97.

Turning to `CNC(=O)C[C@H](C)N(C)Cc1cc(OC)ccn1`, the “% Inhibition” value is 0% and the Z score is recorded as -0.01.

Take `CC(C)c1ccc(C(=O)NC2CCOC(c3ccc(F)cc3)C2)nc1` (stereo unspecified): the “% Inhibition” value turned out to be 3% and the Z score is -0.51.

For the compound `CCNC(=O)C[C@H]1Cc2ccccc2C2(CCN(C(=O)COC)CC2)O1`, the “% Inhibition” value is given as -2% and the Z score was found to be 0.3.

Turning to `Nc1cc(C(=O)O)ccc1Br`, the “% Inhibition” value came out at 1% and the Z score was -0.15.

As for `O=c1c(S(=O)(=O)N2CCOCC2)cccn1Cc1cc(F)cc(F)c1`, the “% Inhibition” value is reported as -6% and the Z score is reported as 0.65.

As for `O=C(Cn1nc(N2CCOCC2)c2ccccc2c1=O)Nc1ccc2c(c1)OCO2`, the “% Inhibition” value was -9% and the Z score stood at 1.28.

As to `CC(C)c1ccc(NC(=O)Cn2cnc3nc(N4CCOCC4)sc3c2=O)cc1`, the “% Inhibition” value was -5% and the Z score is on record as 0.59.

On to `Cn1cccc1CN1CCCN(S(=O)(=O)c2ccccc2)CCC(=O)NCC1`, for which the “% Inhibition” value was -5% and the Z score is listed as 0.61.

Take `Cn1cccc1CN1CCC(CC2CC2)(NC(=O)c2ccccc2)CC1`: the “% Inhibition” value is -6% and the Z score is 1.24.

With `Cc1ccc(NS(=O)(=O)c2cc(-c3noc(C(=O)N4CCOCC4)n3)cs2)nc1`, the “% Inhibition” value is given as -21% and the Z score came to 2.38.

`Clc1ccc(COc2ccccc2-c2ccn(Cc3ccc(Cl)c(Cl)c3)n2)cc1`: the “% Inhibition” value is given as -6% and the Z score worked out at 0.88.

Consider `Cc1noc(C)c1Cc1noc(CCCOCc2ccccc2)n1`, for which the “% Inhibition” value was -9% and the Z score stood at 1.29.

`COc1ccc(NC(=O)CCNC(=O)[C@H]2O[C@@H]3OC(C)(C)O[C@@H]3[C@H]3OC(C)(C)O[C@H]32)cc1`: the “% Inhibition” value is given as 1% and the Z score was -0.12.

As for `Cc1cc2c(c(-c3cnccn3)c1)O[C@@H](CNC(=O)/C(F)=C/c1ccccc1)C2`, the “% Inhibition” value came out at 14% and the Z score is given as -1.78.

As for `C[C@H]1CN(C)CCN1C(=O)c1cnc(-c2ccccc2)nc1`, the “% Inhibition” value is recorded as -4% and the Z score is reported as 0.35.

For `CC[C@@H](Cc1ccc(C(F)(F)F)cc1)C(=O)Nc1nnn[nH]1`, the “% Inhibition” value was 1% and the Z score is -0.17.

Consider `COc1ccc2nc(C)cc(Nc3ccccc3OC)c2c1`, for which the “% Inhibition” value came to 3% and the Z score was -0.48.

On to `CCC12OC3C(O)C4CC3C1C4C(=O)N2c1ccc(Cl)cc1Cl` (stereo unspecified), for which the “% Inhibition” value is listed as -13% and the Z score was 1.2.

With `CN1CC[C@@]2(CCC1=O)CN(c1ccnc3ccc(Cl)cc13)CCN2C`, the “% Inhibition” value is given as -4% and the Z score was determined as 0.66.

For `Cc1cc(C)nc(-n2cc(C(=O)N3CC4CCC3C4)c(C(C)C)n2)n1` (stereo unspecified), the “% Inhibition” value is given as -14% and the Z score is on record as 1.44.

For the compound `COc1cccnc1N(C)C(=O)C1(C#N)CCCCC1`, the “% Inhibition” value was -7% and the Z score was determined as 0.62.

For `Cc1cccc(NC(=O)Cn2cnc3nc4c(cc3c2=O)CCCC4)c1`, the “% Inhibition” value was -15% and the Z score came to 2.29.

Regarding `O=C(COc1ccccc1Cl)Nc1ccc2[nH]ncc2c1`, the “% Inhibition” value is -13% and the Z score turned out to be 1.55.

For the origin of these results see ChEMBL document CHEMBL4888484, “Replenishing the malaria drug discovery pipeline: Screening and hit evaluation of the MMV Hit Generation Library 1 (HGL1) against asexual blood stage Plasmodium falciparum ,using a nano luciferase reporter read-out” (2022).
